Data as given in PubChem BioAssay AID2675 (National Center for Advancing Translational Sciences (NCATS), 2010).
Screen size: about 280,000 compounds; about 100 (0.036%) were called active. The inconclusive results got no clear call from the source; some entries with a clear call stand among them for comparison. Calls follow the shape of the dose curve; as a rule, active = well fitted inhibition curve with a large enough effect in the signal ratio, with a control signal flat (not every such curve was filed as active); inconclusive = small, poorly fitted or top-dose-only effect, or effect the other way, or a change in a side signal; inactive = no such curve, though single readings can be large or run the other way; the % refers to the signal ratio. Where the call is inconclusive, the potency comes from a doubtful curve fit. “Side channel” marks fits to a control or component signal instead of the main read-out.

target: Muscleblind-like protein 1 (Homo sapiens) (UniProt Q9NR56); experiment: qHTS Assay for Inhibitors of MBNL1-poly(CUG) RNA binding; settings: TR-FRET MBNL1-His/biotin-(CUG)12 binding, 665/545 ratio; activity change, negative = inhibition: at 57.5 µM (top of the series)
Sequence of UniProt Q9NR56 (Q9NR56 whole entry, looked up): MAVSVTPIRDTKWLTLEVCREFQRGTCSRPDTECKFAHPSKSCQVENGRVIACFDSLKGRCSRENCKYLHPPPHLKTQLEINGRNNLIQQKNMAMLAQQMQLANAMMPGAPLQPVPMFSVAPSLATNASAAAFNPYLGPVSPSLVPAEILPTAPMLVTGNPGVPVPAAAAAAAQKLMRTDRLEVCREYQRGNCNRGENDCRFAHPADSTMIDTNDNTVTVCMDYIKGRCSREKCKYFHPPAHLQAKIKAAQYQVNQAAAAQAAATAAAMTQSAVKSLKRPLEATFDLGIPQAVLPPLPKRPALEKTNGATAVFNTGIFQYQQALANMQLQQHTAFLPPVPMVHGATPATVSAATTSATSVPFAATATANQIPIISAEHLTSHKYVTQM
Excerpt: NIH Chemical Genomics Center [NCGC] NIH Molecular Libraries Probe Production Centers Network [MLPCN] MLPCN Grant: R03 MH087421-01 Assay Submitter (PI): Charles Thornton NCGC Assay Overview: Expanded CTG repeats in the 3' untranslated region of the DM protein kinase (DMPK) gene causes type I myotonic dystrophy (DM1). DM1 is a multi-systemic disease with a prevalence of 1/7000. Clinical features include myotonia, progressive muscle weakness and wasting, cardiac arrhythmia, insulin resistance, hypersomnolence, cataracts, and other symptoms. The pathogenic effect of expanded CTG repeats stems from deleterious effects of the mutant transcript. CUGexp mRNA accumulates in nuclear foci and sequesters proteins of the muscleblind family, of which MBNL1 is the most common family member in skeletal muscles. The binding interaction between MBNL1 and CUGexp tracts leads to deregulation of alternative splicing and is therefore a key molecular step in the pathogenesis of DM1. To target this binding interaction, we optimized a protein-RNA binding assay in 1536-well format for identification of small molecule inhibitors of biotinylated (CUG)12 and his-tagged MBNL1 binding. Protein-RNA complex of MBNL1-His and Biotin-(CUG)12 captures the detection reagents terbium-labeled anti-His antibody and streptavidin conjugated XL665. This brings the terbium label within close proximity to XL665 to allow time-resolved fluorescence resonance energy transfer (TR-FRET). Inhibitors of MBNL1-(CUG)12 binding will disrupt TR-FRET.
NCGC Assay Protocol Summary: This is a TR-FRET binding assay with MBNL1-His and Biotin-(CUG)12 RNA. The assay uses a ratiometric measurement. In the presence of MBNL1-(CUG)12 complex, the excitation energy is transferred to the XL665 acceptor label, causing emission at 665nm, while the 545nm donor signal […]. Data were normalized to the controls for basal activity (buffer only) and 100% activity (with MBNL1-(CUG)12). […] The final titration was 92 nM to 58 uM. (3) Add 1 ul of terbium labeled anti-His antibody (0.055 ng/ul final concentration) (4) Add 1 ul of streptavidin-XL665 (5 nM final concentration) (5) Incubate 60 min at room temperature (6) Detect the assay plate in a EnVision plate reader (PerkinElmer) with Ex=340 nm, Em1=665 nm and Em2=545 nm. Keywords: mytonic dystrophy type I, DM1, muscleblind like 1, MBNL1, CUG expansion, protein-RNA binding inhibitor, high throughput screening, MLSMR, MLSCN, NIH Roadmap, qHTS and NCGC
% is scaled to controls: 0 for no effect and ±100 for the full control effect; potency is read from the fitted curve at half-maximal effect; tags tell the direction and shape of the fitted curve or compound fluorescence and quenching.

Row | Compound | Potency | activity change, negative = inhibition
1 | COCCN(C(=O)COC(=O)/C=C/c1ccc2ccccc2n1)c1c(N)n(Cc2ccccc2)c(=O)[nH]c1=O | inconclusive: 17.8 µM [quencher, side channel, partial curve] | 
2 | CCS(=O)(=O)c1ccc(O)c(NC(=O)COc2ccc(C)cc2)c1 | inconclusive: 0.631 µM [fluorescent, side channel, single point] | 
3 | Cc1ccccc1Cn1ccc(NC(=O)c2nn(C)cc2[N+](=O)[O-])n1 | inconclusive: 12.6 µM [quencher, side channel, partial curve] | 
4 | O=C(CN1C(=O)c2ccccc2C1=O)Nc1cccc([N+](=O)[O-])c1 | inconclusive: 22.4 µM [quencher, side channel, partial curve] | 
5 | O=C(Nc1ccc2c(c1)OCO2)c1ccc(N2CCCC2)c([N+](=O)[O-])c1 | inconclusive: 39.8 µM [quencher, side channel, single point] | 
6 | Cc1cc(N/N=C/c2ccccc2[N+](=O)[O-])nc(-n2nc(C)cc2C)n1 | inconclusive: 3.16 µM [quencher, side channel, full curve, poor fit] | 
7 | O=[N+]([O-])c1ccc(CNc2ccc(Cl)cc2)s1 | inconclusive: 8.91 µM [quencher, side channel, full curve] | 
8 | N/C(=N\OC(=O)c1ccccc1[N+](=O)[O-])c1cccnc1 | inconclusive: 25.1 µM [quencher, side channel, partial curve, poor fit] | 
9 | COc1cc(/C=C/[N+](=O)[O-])ccc1OC(=O)/C=C/c1ccc(F)cc1 |  | inactive: 4.83%
10 | COc1cc(-c2noc(C)c2C#Cc2ccsc2)cc(OC)c1OC |  | inactive: -2.57%
11 | CC(CCc1ccccc1)NC(=O)C(=O)NCCO (stereo not given) |  | inactive: 2.21%
12 | COc1cc([N+](=O)[O-])cc(CN2CCCCC2)c1O | inconclusive: 14.1 µM [quencher, side channel, partial curve] | 
13 | O=C1CSC(c2ccc([N+](=O)[O-])cc2)N1CCN1CCCCC1 (stereo not given) | inconclusive: 35.5 µM [quencher, side channel, partial curve] | 
14 | CC(=O)Nc1ccc(O)cc1[N+](=O)[O-] | inconclusive: 15.8 µM [quencher, side channel, partial curve] | 
15 | FC(F)(F)c1cccc(-c2nc3nc(Cl)c(Cl)nc3[nH]2)c1 |  | inactive: -2.73%
16 | O=C(N/N=C/c1cn(-c2ccccc2)nc1-c1ccc(F)cc1)c1ccc(Br)o1 |  | inactive: 6.91%
17 | Cc1ccc2nc(SCC(=O)N(CC(C)C)c3c(N)n(CC(C)C)c(=O)[nH]c3=O)[nH]c2c1 |  | inactive: -8.42%
18 | O=c1[nH]cnc2c1ncn2[C@@H]1O[C@H](CO)[C@@H](O)[C@H]1O | inconclusive: 0.158 µM [inhibitor, full curve, poor fit] | 
19 | COc1cc(/C=C2\Oc3cc(O)ccc3C2=O)ccc1O | inconclusive: 11.2 µM [quencher, side channel, partial curve] | 
20 | COc1ccc(S(=O)(=O)NCCc2cn3nc(C)c(C)nc3n2)cc1 | inconclusive: 39.8 µM [quencher, side channel, single point] | 
21 | CCCC(C)NC(=O)/C=C/c1cccc([N+](=O)[O-])c1 (stereo not given) | inconclusive: 6.31 µM [quencher, side channel, partial curve] | 
22 | CC(=O)NN1C(=O)/C(=C/c2ccc(C(C)C)cc2)SC1=S | inconclusive: 31.6 µM [quencher, side channel, single point] | 
23 | CC1CCN(S(=O)(=O)c2ccc3c(c2)oc(=O)n3CC(=O)NCc2ccc3c(c2)OCO3)CC1 |  | inactive: 19.8%
24 | O=C(c1ccc(N2CCN(C(=O)c3ccccc3)CC2)cc1)c1cccc(F)c1 | inconclusive: 31.6 µM [quencher, side channel, single point] | 
25 | O=C(c1ccc(CSCc2ccccc2F)o1)N1CCN(c2ccc(N3CCOCC3)nn2)CC1 | inconclusive: 35.5 µM [quencher, side channel, partial curve] | 
26 | NNC(=O)c1ccc(Cn2cccn2)o1 |  | inactive: 1.33%
27 | COc1ccc(NC(=O)C2CC(c3ccccc3Cl)=NO2)cc1 (stereo not given) |  | inactive: -0.218%
28 | O=C(Nc1ccccc1N1CCN(C(=O)c2ccccc2)CC1)c1ccc([N+](=O)[O-])o1 | inconclusive: 11.2 µM [quencher, side channel, partial curve] | 
29 | O=C(CSc1nnc(-c2ccc(F)cc2)o1)NC1CCCC1 |  | inactive: -4.85%
30 | CCc1nc2ccccc2n1Cc1ccc(OC)c(OC)c1 | inconclusive: 7.08 µM [quencher, side channel, full curve] | 
